Results taken from patent US20120252071.

B1: wild-type T7 RNA polymerase including His6-tag (protein)
chain: MNTINIAKNDFSDIELAAIPFNTLADHYGERLAREQLALEHESYEMGEARFRKMFERQLKAGEVADNAAAKPLITTLLPKMIARINDWFEEVKAKRGKRPTAFQFLQEIKPEAVAYITIKTTLACLTSADNTTVQAVASAIGRAIEDEARFGRIRDLEAKHFKKNVEEQLNKRVGHVYKKAFMQVVEADMLSKGLLGGEAWSSWHKEDSIHVGVRCIEMLIESTGMVSLHRQNAGVVGQDSETIELAPEYAEAIATRAGALAGISPMFQPCVVPPKPWTGITGGGYWANGRRPLALVRTHSKKALMRYEDVYMPEVYKAINIAQNTAWKINKKVLAVANVITKWKHCPVEDIPAIEREELPMKPEDIDMNPEALTAWKRAAAAVYRKDKARKSRRISLEFMLEQANKFANHKAIWFPYNMDWRGRVYAVSMFNPQGNDMTKGLLTLAKGKPIGKEGYYWLKIHGANCAGVDKVPFPERIKFIEENHENIMACAKSPLENTWWAEQDSPFCFLAFCFEYAGVQHHGLSYNCSLPLAFDGSCSGIQHFSAMLRDEVGGRAVNLLPSETVQDIYGIVAKKVNEILQADAINGTDNEVVTVTDENTGEISEKVKLGTKALAGQWLAYGVTRSVTKRSVMTLAYGSKEFGFRQQVLEDTIQPAIDSGKGLMFTQPNQAAGYMAKLIWESVSVTVVAAVEAMNWLKSAAKLLAAEVKDKKTGEILRKRCAVHWVTPDGFPVWQEYKKPIQTRLNLMFLGQFRLQPTINTNKDSEIDAHKQESGIAPNFVHSQDGSHLRKTVVWAHEKYGIESFALIHDSFGTIPADAANLFKAVRETMVDTYESCDVLADFYDQFADQLHESQLDKMPALPAKGNLNLRDILESDFAFA
fluorescence (arbitrary units), RNA polymerase activity, 10 mM DTT in reaction mixture (arbitrary units): 12.4 | fluorescence (arbitrary units), RNA polymerase activity, no reducing agent (arbitrary units): 8.09
